Measured values from PubChem BioAssay AID485367 (National Center for Advancing Translational Sciences (NCATS), 2010).
In all, about 330,000 compounds went through this assay and about 560 (0.17%) were called active. The inconclusive results got no clear call from the source; some entries with a clear call stand among them for comparison. Calls come from the whole dose curve; as a rule, active = well fitted inhibition curve with a large enough effect; inconclusive = small, poorly fitted or top-dose-only effect, or effect the other way; inactive = flat fitted curve, though single readings scatter. No potency is given beside an inconclusive call; the fits are too rough.

The compounds below were run against ATP-dependent 6-phosphofructokinase (Trypanosoma brucei brucei) (UniProt O15648) (assay: qHTS Assay to Find Inhibitors of T. brucei phosphofructokinase). Conditions: T. brucei PFK, ADP-Glo luminescence; series mostly up to 57.5 µM.
Chain of UniProt O15648 (O15648 whole entry, looked up): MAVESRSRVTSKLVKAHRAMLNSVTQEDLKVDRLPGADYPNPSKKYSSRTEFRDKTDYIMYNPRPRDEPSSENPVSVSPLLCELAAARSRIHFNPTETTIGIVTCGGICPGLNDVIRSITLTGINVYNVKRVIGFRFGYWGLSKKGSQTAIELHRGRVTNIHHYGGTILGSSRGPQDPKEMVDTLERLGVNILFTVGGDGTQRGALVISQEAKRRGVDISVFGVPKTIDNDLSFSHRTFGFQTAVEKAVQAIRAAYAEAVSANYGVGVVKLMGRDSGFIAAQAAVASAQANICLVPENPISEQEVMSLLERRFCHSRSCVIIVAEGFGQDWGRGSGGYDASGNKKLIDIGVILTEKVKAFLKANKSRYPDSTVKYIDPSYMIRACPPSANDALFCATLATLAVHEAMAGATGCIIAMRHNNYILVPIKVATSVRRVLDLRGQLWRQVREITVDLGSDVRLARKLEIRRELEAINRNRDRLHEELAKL
In short: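 Activity is normalized to no-enzyme wells (full inhibition) and 1.25 nM enzyme wells (no inhibition). Reaction: 0.5 mM F6P, 0.1 mM ATP, 45 min RT, ADP-Glo luminescence; concentration-response curves fitted and classed by quality.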
Note: nearly all actives have a fitted effect of over 60% in size.
Potency is the fitted concentration of half-maximal effect; tags give direction and shape of the fitted curve.

SMILES	Potency
O=C1CC(=O)N(Cc2ccco2)C(=S)N1	active: 21.3 µM
COc1cccc(Oc2cn[nH]c2-c2ccc(OCC(=O)NN)cc2O)c1	inactive
COc1cccc(CN2CCCN(S(=O)(=O)c3ccc(Br)cc3)CC2)c1	inactive
CCSc1nnc(SCC(=O)Nc2cc(C)on2)s1	inconclusive [falling, single point]
Cc1ccc(-c2nc3c(c(SCC(=O)Nc4cccc(C(=O)O)c4)n2)Cc2cccc(C)c2O3)cc1	active: 1.69 µM
COc1cccc(NC(=O)CSC(N)=O)c1	inconclusive [falling, partial curve]
O=C(O)c1ccc2nc(-c3ccco3)c(-c3ccco3)nc2c1	inconclusive [falling, partial curve]
CC1=CC(c2ccccc2)n2nc(NS(=O)(=O)c3ccc(C)cc3)nc2N1 (centres undefined)	inconclusive [activator, partial curve]
N#CCC(=O)Nc1ccc(C(=O)OCC(=O)N2CCN(C(=O)c3ccco3)CC2)cc1	inconclusive [falling, full curve, poor fit]
O=C(CN1C(=O)S/C(=C\c2ccccc2)C1=O)NNC(=O)c1ccccc1O	inconclusive [falling, single point]
O=C(COC(=O)/C=C/c1ccc(Cl)c(Cl)c1)NC1CCS(=O)(=O)C1 (centres undefined)	inconclusive [falling, single point]
COc1cc(/C=C/c2ccc3c([N+](=O)[O-])cccc3n2)ccc1OCC(=O)O	inconclusive [activator, partial curve]
NC(=O)CSCc1cccc(Br)c1	inconclusive [falling, single point]
COc1ccc(C2=Nn3c(nnc3-c3ccc(OC)cc3)SC2)cc1	inactive
COc1cc(O)c2c(=O)c3c(O)ccc(O)c3oc2c1	inconclusive [falling, partial curve]
Cc1cc[n+](CC(=O)c2cc3ccccc3oc2=O)cc1	inconclusive [falling, single point]
C(=C\c1ccccn1)/c1ccccn1	inactive
CCN(CC(=O)Nc1ccc(NC(C)=O)cc1)C(=O)/C=C/c1cn(Cc2ccccc2)nc1-c1cccnc1	inactive
CCCCc1ccc(/C=C2\C(=O)ON=C2c2ccccc2)s1	inactive
O=C(O)c1ccc(N=Nc2c(O)ccc3ncccc23)cc1	inconclusive [activator, single point]
O=C(N/N=C/c1ccccc1Br)c1ccc(CSc2cccc3cccnc23)cc1	inactive
CCc1cc2c(-c3ccccc3)cc(=O)oc2cc1OC(C)C(C)=O (centres undefined)	inconclusive [falling, single point]
O=C(CSc1ccc(Cl)cc1)NCc1ccco1	inconclusive [falling, partial curve]
COc1ccc(S(=O)(=O)N(C)c2ccc(C(=O)NCc3ccncc3)cc2)cc1	inconclusive [falling, single point]
COCCNC(=O)c1cc(-c2ccccc2C)nn1CC1CC(c2cccnc2)=NO1 (centres undefined)	inactive

SMILES	Potency
CCN(CC)c1ccc(N)cc1S(=O)(=O)Nc1ccccc1OC	inconclusive [falling, single point]
O=C(NC(c1ccc(Cl)cc1)c1cc(Cl)c2cccnc2c1O)c1cccnc1 (centres undefined)	inactive
Nn1c(Cc2ccccc2F)n[nH]c1=S	inactive
Cn1ncc2c(Nc3cccc(Cl)c3)nc(Nc3cccc(Cl)c3)nc21	inactive
CCC(/C=C1\Sc2ccc(OC)cc2N1CCO)=C\c1sc2ccc(OC)cc2[n+]1CCO	inconclusive [falling, partial curve]
COC(=O)C1C(=O)c2c([nH]c(C(=O)OC3CCCCC3)c2C)CC1C (centres undefined)	inconclusive [falling, single point]
O=C(CSCc1ccccc1)N=Nc1c(O)[nH]c2ccccc12	inconclusive [falling, single point]
CCN(C[C@H]1N[C@@](C)(C(=O)OC)[C@H]2C(=O)N(C)C(=O)[C@@H]12)S(=O)(=O)c1ccc(OC(F)(F)F)cc1	inconclusive [falling, single point]
CCOC(=O)C1CCN(S(=O)(=O)c2c(Cl)ccc3nonc23)CC1	inconclusive [falling, single point]
Cc1ccc2c(c1C)NC(C(=O)O)C1CC=CC21 (centres undefined)	inconclusive [falling, full curve]
CC(=O)c1ccc(S(=O)(=O)NC2CCCCCCC2)cc1	inconclusive [falling, single point]
CCOc1ccccc1OCCCC(=O)N1CCN(S(=O)(=O)c2cccc(F)c2)CC1	inconclusive [falling, single point]
COc1ccc(CCc2nc(C)ccc2O)cc1	inactive
NC(=S)NNc1cc(Cl)cc(Cl)c1	inconclusive [falling, single point]
CC(C)CN(C)C(=O)CCc1nnc(Cc2cccc(C(F)(F)F)c2)o1	inactive
COc1ccc(C(=O)COC(=O)c2ccc3c(c2)OCO3)c(OC)c1	inconclusive [falling, single point]
CCOC(=O)c1ccc(NC(=O)NC2CC3CCC(C2)N3)cc1 (centres undefined)	inconclusive [falling, single point]
O=C(COC(=O)Cc1c(Cl)cccc1Cl)Nc1ccc2[nH]c(=O)[nH]c2c1	inconclusive [falling, partial curve]
Cc1ccc(S(=O)(=O)c2cc(O)ccc2O)cc1C	inactive
O=C(/C=C/c1ccc([N+](=O)[O-])cc1)Nc1cccc(C(=O)Nc2ccccc2C(=O)O)c1	inconclusive [falling, partial curve]
CC(=O)Nc1ccc(C(=O)NNC(=O)c2ccccc2-n2cccc2)cc1	inconclusive [falling, single point]
CCOc1cnn(Cc2ccccc2)c(=O)c1SCc1ccccc1	inactive
Clc1ccc(COc2ccccn2)cc1Cl	active: 16.9 µM
Cc1noc(NS(=O)(=O)c2ccc(NC(=O)COc3ccc(Cl)cc3Cl)cc2)c1C	active: 12 µM
Oc1ccc(CN2CCN(Cc3ccccc3)CC2)c2cccnc12	inactive

SMILES	Potency
CC1(C)Cc2c(c(-c3ccccc3)[nH]c(=O)c2C#N)CS1	inconclusive [activator, single point]
O=C(c1ccc(=O)oc1)N1CCCc2ccccc21	inconclusive [falling, single point]
COc1ccc(-c2ncc3ccccn23)cc1OC	inconclusive [activator, single point]
CC12CCC3c4ccc(O)cc4CCC3C1CCC2=O (centres undefined)	inactive
Nc1nnc(SCC(=O)OCc2ccc(Cl)c(Cl)c2)s1	inconclusive [falling, single point]
O=C(NOC(=O)c1c(F)cccc1Cl)c1ccc(Cl)c(Cl)c1	inconclusive [falling, single point]
O=C(O)Cn1c2ccccc2c2n[nH]c(=S)nc21	inconclusive [falling, single point]
O=C(Nc1nc(-c2ccco2)c(-c2ccco2)s1)c1ccc(F)cc1F	inconclusive [falling, single point]
O=C(CS(=O)(=O)c1ccccc1)Nc1nccs1	inconclusive [activator, single point]
CC(OC(=O)c1ccc2ncsc2c1)C(=O)N(C)C1CCCCC1 (centres undefined)	inconclusive [falling, single point]
O=C(CSc1nnc(CNC(=O)c2ccco2)o1)c1ccccc1	inactive
O=C(NC1CCCCC1)c1cc(-c2cccs2)on1	inconclusive [falling, single point]
COc1ccc(Cl)cc1C(=O)NNC(=O)COC(=O)CCN=C1NS(=O)(=O)c2ccccc21	inconclusive [activator, partial curve]
O=C1NC(c2ccc(Cl)c([N+](=O)[O-])c2)Nc2ccccc21 (centres undefined)	active: 21.3 µM
CCOc1ccc(OCC)c(NC(=O)CSc2nnc(-c3cccnc3)o2)c1	inactive
O=C(C(=O)N1CCN(c2cccc(Cl)c2)CC1)c1c[nH]c2ccccc12	inconclusive [falling, single point]
O=C(COC(=O)c1ccccc1Oc1ccccc1)NCc1ccco1	active: 26.9 µM
CCOC(=O)c1ccc(-n2c(CCC(=O)O)ccc2-c2cccs2)cc1	inconclusive [activator, single point]
Cc1ccc(/C=C/C(=O)O)cc1S(=O)(=O)Nc1ccccc1C(=O)O	inconclusive [activator, single point]
O=C(COC(=O)CCc1c[nH]c2ccccc12)NCc1ccccc1	inactive
CC1(c2ccc([N+](=O)[O-])cc2)Nc2ccccc2S1 (centres undefined)	inconclusive [falling, single point]
Cc1c(C)c2ccc(OCC(=O)N3CCN(c4cccc(Cl)c4)CC3)cc2oc1=O	inconclusive [falling, partial curve]
COc1cc(C(=O)Nc2nnc(CC(C)C)s2)c([N+](=O)[O-])cc1OC	inactive
CCOC(=O)c1c(NC(=O)N/N=C/c2ccccc2OCC)sc(C(C)=O)c1C	inconclusive [activator, single point]
